Reference: PubChem BioAssay AID1458 (National Center for Advancing Translational Sciences (NCATS), 2008)
Among all 210,000 compounds or so, about 5,900 (2.8%) were called active. The shares of active, inactive and inconclusive entries below differ from those in the screen. Calls follow the shape of the dose curve; as a rule, active = well fitted activation curve with a large enough effect; inconclusive = small, poorly fitted or top-dose-only effect; inactive = no such curve, though single readings can be large or run the other way. A potency beside an inconclusive call is a rough fit, not a confirmed value.

assay: qHTS Assay for Enhancers of SMN2 Splice Variant Expression; conditions: HEK293 SMN2-luciferase splicing reporter, luminescence, 30-36 h; activity change, positive = activation: at 46.1 µM (top of the series); also: nearly all actives have a fitted effect of over 55% in size; as to activity change, positive = activation: % of control where 0% means no effect
Summary of the method: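 qHTS luciferase splicing reporter: luminescence rises when SMN2 exon 7 is included in transfected HEK293 cells. Compound exposure lasted 30-36 h at 37C, with 4.5 mM final sodium butyrate as control, followed by a ONE-Glo read.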
Potency is read from the fitted curve at half-maximal effect; tags tell the direction and shape of the fitted curve.

Compound	Potency	activity change, positive = activation
CC(=O)NCc1ccc(S(=O)(=O)NC(C(=O)O)C(C)C)cc1 (centres undefined)	inactive	–
CCOC(=O)COn1c2c(c3c4no[n+]([O-])c4ccc31)CCCC2	inconclusive: 12.6 µM [activator, single point]	–
CC(C)c1ccc(NC(=S)NCc2ccc3c(c2)OCO3)cc1	inconclusive: 20 µM [activator, partial curve]	–
CC(=O)c1ccc(N=Nc2ccc(C)cc2)cc1	active: 1.26 µM	–
CC(c1ccccc1)C1C(C#N)=C(N)OC2=C1C(=O)CCC2 (centres undefined)	inactive	–
O=C(Oc1ccccc1)N1CCC2(CCCN(c3ccc(-c4ccccc4)cc3)C2)CC1	inactive	–
CCOC(=O)c1sc(NC(=O)CCN2CCC(C)CC2)c(C(=O)OCC)c1C	inactive	–
O=C(O)c1ccccc1S(=O)(=O)Cc1ccccc1	inconclusive: 0.1 µM [activator, full curve]	–
CCN(CC)C(=O)Cn1cc(S(=O)(=O)CC(=O)Nc2ccc3c(c2)OCCO3)c2ccccc21	inconclusive: 28.2 µM [activator, single point]	–
CC(=O)NN1C(=O)/C(=C\c2ccc(C)cc2)SC1=S	inactive	–
Cc1nc2ccccn2c1C(=O)N/N=C/c1ccc(CNC(=O)C(=O)Nc2ccccc2)o1	inconclusive: 5.62 µM [activator, single point]	–
O=C(Nc1ccccc1)Nc1ccc(F)cc1F	inconclusive: 12.6 µM [activator, partial curve]	–
CCOC(=O)c1nnn(CC(=O)N2N=C(c3cc(C)ccc3C)CC2c2ccc(OC)cc2)c1C(=O)OCC (centres undefined)	inconclusive: 22.4 µM [activator, single point]	–
Cn1cc([N+](=O)[O-])c(C(=O)N/N=C/c2ccc([N+](=O)[O-])cc2)n1	inconclusive: 3.98 µM [activator, full curve, poor fit]	–
Cc1ccc(OCC(=O)N2CCc3ccccc32)cc1	active: 14.1 µM	–
CC(=O)NC(Cc1ccccc1)C(=O)OCC(=O)c1ccccc1 (centres undefined)	inactive	–
CCOC(=O)/C(C#N)=C/c1ccc(-c2ccc(C)cc2)o1	inactive	–
COc1cccc(C(=O)/C=C/Nc2ccc(NC(C)=O)cc2)c1	active: 12.6 µM	–
Nc1nonc1-c1noc(CCCN2C(=O)c3ccccc3C2=O)n1	inconclusive: 35.5 µM [activator, single point]	–
COc1ccc(C=C2C(=O)c3ccccc3C2=O)cc1O	inactive	–
Cc1cccc(NC(=O)CSc2nc3ccccc3o2)c1	inconclusive: 0.708 µM [activator, full curve, poor fit]	–
CCCNC(=O)c1ccccc1NS(=O)(=O)c1ccc2c(c1)OCCO2	inconclusive: 0.126 µM [activator, full curve, poor fit]	–
CC(C)(C)OC(=O)N/N=C\c1ccc(OC(=O)c2cccs2)cc1	inconclusive: 14.1 µM [activator, partial curve, poor fit]	–

Compound	Potency	activity change, positive = activation
NC(=O)c1cc(C(=O)c2ccc(Cl)cc2)c[nH]1	inconclusive: 22.4 µM [activator, single point]	–
COc1ccccc1/C=C/C=N/NC(=O)CN1CCN(S(=O)(=O)c2ccc(C)cc2)CC1	inconclusive: 35.5 µM [activator, single point]	–
Cc1cc(NC(=O)NC(=O)c2cccc(OC(F)(F)C(F)F)c2)n[nH]1	active: 5.62 µM	–
COc1ccc(CC(=O)N2CCN(C(=O)Cc3ccc(OC)cc3)CC2)cc1	inconclusive: 12.6 µM [activator, partial curve, poor fit]	–
Cc1ccc(C(=O)NCCn2ccc3ccccc32)cc1[N+](=O)[O-]	inconclusive: 2.51 µM [activator, partial curve, poor fit]	–
COc1ccc(/C=C(\C#N)C(N)=O)c(OC)c1	–	inactive: -1.64% [at 9.22 µM]
N#CC1=C(Nc2ccccc2)SC=C(c2ccc(Br)cc2)N=C1N1CCOCC1	inconclusive: 0.0141 µM [activator, full curve, poor fit]	–
CNC(=S)N1N=C(c2ccc(C)cc2)CC1c1ccc(Cl)cc1 (centres undefined)	inactive	–
O=C(NCc1ccco1)c1cccnc1-c1nc2ccccc2s1	inconclusive: 0.0398 µM [activator, full curve, poor fit]	–
O=C(CCCOc1ccccc1)N1CCc2ccccc2C1	active: 12.6 µM	–
Cc1c(N/C=C/C(=O)c2ccc(Cl)cc2)c(=O)n(-c2ccccc2)n1C	inconclusive: 3.16 µM [activator, partial curve]	–
CC(=O)C1=C(O)C(=O)N(Cc2cccnc2)C1c1ccc(O)cc1 (centres undefined)	inconclusive: 35.5 µM [activator, partial curve]	–
Cc1ncoc1C(=O)Nc1ccc2c(c1)OCCO2	active: 15.8 µM	–
O=C(N/N=C\c1ccc(F)cc1)c1ccc(F)cc1	inconclusive: 8.91 µM [activator, partial curve, poor fit]	–
Cc1cccc(C)c1NC(=O)Cn1c(=O)n(CCC(=O)NCc2ccccc2Cl)c(=O)c2sccc21	inconclusive: 35.5 µM [activator, single point]	–
CC(=O)c1cnc2c(-c3cccc(Br)c3)cnn2c1C	inconclusive: 7.94 µM [activator, partial curve, poor fit]	–
c1ccc(C[n+]2csc3ccccc32)cc1	inconclusive: 0.02 µM [activator, full curve, poor fit]	–
COc1cc(/C=N/Nc2cccc3cccnc23)cc(OC)c1O	inconclusive: 22.4 µM [activator, single point]	–
CC1=C/C(=N\NC(=S)NCc2ccccc2)CC1	inconclusive: 7.94 µM [activator, partial curve]	–
O=C1NC(c2ccccc2Cl)Nc2ccccc21 (centres undefined)	inconclusive: 31.6 µM [activator, single point]	–
CCCCCCn1c(N2CCC(C(N)=O)CC2)nc2c1c(=O)[nH]c(=O)n2C	inconclusive: 3.98 µM [activator, single point]	–
CC(C)CC(=O)Nc1cccc(-c2nc3ccccc3[nH]2)c1	inconclusive: 6.31 µM [activator, partial curve, poor fit]	–
Cc1ccc(C(=O)Nc2nnc(-c3ccncc3)s2)o1	inconclusive: 0.141 µM [activator, full curve, poor fit]	–

Compound	Potency	activity change, positive = activation
O=C1CC(SC2=NCCS2)C(=O)N1c1ccc(Br)cc1 (centres undefined)	inconclusive: 1.41 µM [activator, full curve, poor fit]	–
CCOc1cc2sc(N3CCC(C(=O)Nc4ccc(C)cc4C)CC3)nc2cc1Br	inconclusive: 14.1 µM [activator, single point]	–
COc1ccccc1NC(=O)CN1CCN(C2c3ccccc3-c3ccccc32)CC1	inconclusive: 35.5 µM [activator, single point]	–
CCOCCCNC(=O)N1CCOCC1	inactive	–
N#Cc1ccc(C(=O)Nc2cc3nn(-c4ccccc4)nc3cc2Cl)c(F)c1	inconclusive: 0.794 µM [activator, full curve, poor fit]	–
N/C(=N\N=C\c1ccc2c(c1)OCO2)c1nonc1N	active: 3.55 µM	–
NC(=O)COC(=O)c1ccc(Oc2ccccc2)cc1	inconclusive: 1 µM [activator, full curve, poor fit]	–
COc1cc(N/N=C/c2ccccc2O)ncn1	inconclusive: 31.6 µM [activator, single point]	–
CC(C)(C)SCCNC(=O)Nc1ccccc1	inconclusive: 14.1 µM [activator, partial curve, poor fit]	–
CC(NC(=O)CC1Nc2ccccc2NC1=O)c1ccccc1 (centres undefined)	inconclusive: 5.62 µM [activator, partial curve, poor fit]	–
NC1=NC(=O)CC(C(=O)NCCc2ccccc2)S1 (centres undefined)	inconclusive: 11.2 µM [activator, partial curve]	–
O=C(NCCOc1nc(N2CCCCC2)nc(N2CCOCC2)n1)Nc1ccccc1	inconclusive: 0.004 µM [activator, full curve, poor fit]	–
COc1cc(NC(=O)CN2CCN(c3ccccc3O)CC2)c(C)cc1[N+](=O)[O-]	inconclusive: 5.62 µM [activator, single point]	–
Cc1ccc(SC(C)c2nc(-c3ccccc3)no2)cc1 (centres undefined)	inconclusive: 0.0032 µM [activator, full curve, poor fit]	–
C/C(=N\NC(=O)c1c[nH]c2ccccc12)c1ccco1	active: 14.1 µM	–
Cc1cc(/C=N/NC(=O)C(O)(c2ccccc2)c2ccccc2)c(C)n1-c1ccccc1	inconclusive: 0.631 µM [activator, full curve]	–
CCc1ccccc1NC(=S)NC1CC2CCCC(C1)N2Cc1cccs1 (centres undefined)	inactive	–
C=CCSC1=N/C(=C\c2cc(OCC)c(OC(C)=O)c([N+](=O)[O-])c2)C(=O)S1	inconclusive: 0.0045 µM [activator, full curve, poor fit]	–
Cc1ccc(C)c(C(=O)O/N=C(\N)c2ccc(Br)cc2)c1	inconclusive: 12.6 µM [activator, single point]	–
CC1(C)CC(=O)C(C=NCCN2CCN(C(=O)c3ccc(F)cc3)CC2)=C(O)C1	inconclusive: 3.98 µM [activator, partial curve]	–
OCc1nc(CO)n(Cc2ccccc2)n1	–	inconclusive: 35.2% [activator]
O=C(c1ccc(S(=O)(=O)c2cccc(Cl)c2)c([N+](=O)[O-])c1)N1CCN(c2ccccn2)CC1	inactive	–
COc1ccc(OC)c(S(=O)(=O)NCc2cccnc2)c1	inconclusive: 0.224 µM [activator, full curve, poor fit]	–
